According to paper PMC3827193:
These are yes or no findings as the source states them, for the method shown. For part of these data: Binding seen in cells or lysates may run through a third protein. Some entries that bind do so weakly or less than the wild type. Tags and fused reporters may be left off the sequences shown.

Sequences of proteins named here, by UniProt entry; tags and fusion partners are left off. Residues count along the entry.
UniProt Q9P3A7, residues 7-815: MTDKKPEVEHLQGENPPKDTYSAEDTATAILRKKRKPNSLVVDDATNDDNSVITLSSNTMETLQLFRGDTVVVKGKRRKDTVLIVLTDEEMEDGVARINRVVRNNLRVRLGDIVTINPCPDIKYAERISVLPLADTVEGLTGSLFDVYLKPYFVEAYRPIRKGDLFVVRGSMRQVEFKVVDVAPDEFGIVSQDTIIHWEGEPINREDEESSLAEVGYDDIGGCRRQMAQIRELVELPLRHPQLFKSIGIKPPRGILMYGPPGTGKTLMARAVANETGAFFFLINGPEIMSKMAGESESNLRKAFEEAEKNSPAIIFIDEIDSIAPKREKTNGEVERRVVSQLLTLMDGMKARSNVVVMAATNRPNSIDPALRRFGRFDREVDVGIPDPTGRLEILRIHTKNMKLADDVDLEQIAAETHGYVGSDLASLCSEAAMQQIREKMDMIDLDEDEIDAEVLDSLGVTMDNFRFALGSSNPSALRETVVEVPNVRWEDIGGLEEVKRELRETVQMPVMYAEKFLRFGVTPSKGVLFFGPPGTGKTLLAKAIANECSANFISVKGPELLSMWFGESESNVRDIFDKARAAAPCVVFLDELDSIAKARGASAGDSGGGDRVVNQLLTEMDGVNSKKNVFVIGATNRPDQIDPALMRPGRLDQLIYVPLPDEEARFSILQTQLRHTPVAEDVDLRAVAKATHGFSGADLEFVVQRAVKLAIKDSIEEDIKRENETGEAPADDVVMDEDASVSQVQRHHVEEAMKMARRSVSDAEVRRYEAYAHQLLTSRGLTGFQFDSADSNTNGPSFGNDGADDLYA

T1: Pli1 fused to the Gal4 DNA-binding domain (GBD) (S. pombe) (UniProt O94451)
T1 sequence: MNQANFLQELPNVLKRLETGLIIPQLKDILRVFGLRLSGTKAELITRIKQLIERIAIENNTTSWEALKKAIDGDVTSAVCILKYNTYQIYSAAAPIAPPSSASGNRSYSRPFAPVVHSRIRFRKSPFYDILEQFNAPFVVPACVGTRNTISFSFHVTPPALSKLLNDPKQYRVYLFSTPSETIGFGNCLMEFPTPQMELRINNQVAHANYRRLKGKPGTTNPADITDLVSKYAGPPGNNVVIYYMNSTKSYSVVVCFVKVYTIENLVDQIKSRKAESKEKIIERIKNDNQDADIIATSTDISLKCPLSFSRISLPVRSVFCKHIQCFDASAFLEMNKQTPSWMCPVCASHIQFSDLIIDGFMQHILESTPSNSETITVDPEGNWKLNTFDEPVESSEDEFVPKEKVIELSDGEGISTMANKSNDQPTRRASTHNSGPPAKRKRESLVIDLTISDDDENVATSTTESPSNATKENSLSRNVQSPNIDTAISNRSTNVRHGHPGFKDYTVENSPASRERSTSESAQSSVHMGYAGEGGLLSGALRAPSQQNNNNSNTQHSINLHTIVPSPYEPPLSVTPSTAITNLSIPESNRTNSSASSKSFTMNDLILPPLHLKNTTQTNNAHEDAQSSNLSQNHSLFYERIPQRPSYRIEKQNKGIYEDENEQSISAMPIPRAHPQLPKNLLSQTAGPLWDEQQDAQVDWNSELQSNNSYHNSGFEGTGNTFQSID

T2: Rfp1 fused to the Gal4 DNA-binding domain (GBD) (S. pombe) (UniProt O13826)
T2 sequence: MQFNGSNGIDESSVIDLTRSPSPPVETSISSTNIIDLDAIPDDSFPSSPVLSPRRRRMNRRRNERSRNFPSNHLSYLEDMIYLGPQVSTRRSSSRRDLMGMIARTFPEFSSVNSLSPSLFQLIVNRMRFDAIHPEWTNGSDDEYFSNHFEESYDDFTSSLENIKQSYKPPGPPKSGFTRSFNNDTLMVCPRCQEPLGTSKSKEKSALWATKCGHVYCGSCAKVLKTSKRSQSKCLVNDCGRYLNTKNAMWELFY

T3: GST-Rfp1 (S. pombe) (UniProt O13826)
T3 sequence: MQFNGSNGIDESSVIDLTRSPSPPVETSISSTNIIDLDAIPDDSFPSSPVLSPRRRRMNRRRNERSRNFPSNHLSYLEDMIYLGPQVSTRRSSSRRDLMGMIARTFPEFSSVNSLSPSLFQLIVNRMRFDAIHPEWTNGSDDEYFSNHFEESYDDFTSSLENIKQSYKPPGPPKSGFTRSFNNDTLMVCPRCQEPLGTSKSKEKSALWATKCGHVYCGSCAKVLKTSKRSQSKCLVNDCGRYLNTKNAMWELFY

T4: GST-Pli1 (S. pombe) (UniProt O94451)
T4 sequence: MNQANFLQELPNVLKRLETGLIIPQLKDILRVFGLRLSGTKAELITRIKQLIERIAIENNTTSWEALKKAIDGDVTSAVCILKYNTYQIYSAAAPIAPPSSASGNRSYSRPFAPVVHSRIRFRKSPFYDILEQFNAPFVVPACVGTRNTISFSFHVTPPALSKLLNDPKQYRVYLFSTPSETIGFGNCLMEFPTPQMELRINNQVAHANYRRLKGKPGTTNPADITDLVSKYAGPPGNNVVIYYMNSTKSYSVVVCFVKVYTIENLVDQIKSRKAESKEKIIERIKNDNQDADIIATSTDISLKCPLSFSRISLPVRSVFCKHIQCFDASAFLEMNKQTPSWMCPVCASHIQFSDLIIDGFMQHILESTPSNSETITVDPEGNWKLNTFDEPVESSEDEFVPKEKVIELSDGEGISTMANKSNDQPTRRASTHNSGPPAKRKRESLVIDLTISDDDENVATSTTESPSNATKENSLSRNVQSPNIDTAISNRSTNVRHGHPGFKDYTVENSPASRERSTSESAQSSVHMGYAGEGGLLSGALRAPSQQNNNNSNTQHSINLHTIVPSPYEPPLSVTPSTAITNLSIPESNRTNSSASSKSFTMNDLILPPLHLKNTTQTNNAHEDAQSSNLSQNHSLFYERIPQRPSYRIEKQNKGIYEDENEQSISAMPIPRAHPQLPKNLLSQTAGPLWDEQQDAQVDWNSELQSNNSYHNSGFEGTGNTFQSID


How the values were obtained:
[1] = target: T1, Pli1 fused to the Gal4 DNA-binding domain (GBD) (S. pombe); assay: two-hybrid; S. cerevisiae PJ69-4A; baits fused to the Gal4 DNA-binding domain (pGBKT7), preys fused to the Gal4 activation domain (S. pombe cDNA library in pGAD-GH); ADE2 and HIS3 reporters (SC-leu-trp-ade; SC-leu-trp-his + 3-aminotriazol); screens, retests and spotted dilution series
[2] = target: T2, Rfp1 fused to the Gal4 DNA-binding domain (GBD) (S. pombe); assay: as above
[3] = target: T3, GST-Rfp1 (S. pombe); assay: pull-down; ~20 ug of GST-fusion protein incubated with the in vitro translation product overnight at 4 C in 1x PBS, 0.1% NP-40, 5% glycerol, 1 mM DTT; glutathione-Sepharose beads 3 hr, washed 5 times; Ufd1 detected by phosphorimaging; only the target purified
[4] = target: T4, GST-Pli1 (S. pombe); assay: as above
[5] = target: Cdc48-GFP (S. pombe) (UniProt Q9P3A7); assay: co-IP; Cdc48-GFP on GFP-Trap_M beads from S. pombe cell extracts (25 mM Tris pH 7.5, 50 mM NaCl, 10% glycerol, 0.1% Triton, 2 mM DTT), 1-2 hr at 4 C, washed 4 times with 300 mM NaCl; Slx8-Myc detected with a Myc antibody

binding [1] | binding [2] | Binder | other results
no binding | no binding | Ufd1CtΔSIM (domain or fragment, UniProt O42915 248-335) LMKGTGTKLNGKEVAEVPKINLLDVEKQECPAPLILPLGTYFFGYPYKAPSIEEDSKKDPNLFKFEGAGTSLRASRKTNGTMGKGSSD | 
 |  | in vitro-translated, 35S-labeled Ufd1 (aa 110-342) (domain or fragment, UniProt O42915 110-342, 35S-methionine-labelled) MMTTLSLEPGDLVRVINTDIAQGSYVKLQPQSVNFLDITDHRAVLENALRNFSTLTKSDIFEILYNDQVYQIKVIDVQPDDSRHVVSVVETDLVVDFDPPIGYEESLQKNKQQNIAGVQGTMVTKIGYDELVRQGDSNLMKGTGTKLNGKEVAEVPKINLLDVEKQECPAPLILPLGTYFFGYPYKAPSIEEDSKKDPNLFKFEGAGTSLRASRKTNGTMGKGSSDDPIDIDA | binding [3]: binds; binding [4]: binds
binds | binds | S. pombe SUMO fused to GAD (protein, UniProt O13351 1-117) MSESPSANISDADKSAITPTTGDTSQQDVKPSTEHINLKVVGQDNNEVFFKIKKTTEFSKLMKIYCARQGKSMNSLRFLVDGERIRPDQTPAELDMEDGDQIEAVLEQLGGCTHLCL | 
binds |  | Rfp1 fused to the Gal4 DNA-binding domain (GBD) (protein, UniProt O13826 1-254) MQFNGSNGIDESSVIDLTRSPSPPVETSISSTNIIDLDAIPDDSFPSSPVLSPRRRRMNRRRNERSRNFPSNHLSYLEDMIYLGPQVSTRRSSSRRDLMGMIARTFPEFSSVNSLSPSLFQLIVNRMRFDAIHPEWTNGSDDEYFSNHFEESYDDFTSSLENIKQSYKPPGPPKSGFTRSFNNDTLMVCPRCQEPLGTSKSKEKSALWATKCGHVYCGSCAKVLKTSKRSQSKCLVNDCGRYLNTKNAMWELFY | 
 |  | Slx8-Myc (protein, UniProt P87176 1-269) MPPAHKRDTNVRNLSAPYNIPSQSARVAAGNAAINRRRSSPVENSPGNGFPVSEDATDYPSGTTSENESLPLNRAPRSLREVASELAQEETLPVETSDLNIDVESEVFDLEDINFQNDADDINQRFTYNNHPASVENSLTNVNSIHAQPTTISDMIDLTDETSYDPRKQKFEQGKNPSTTNAEIEKEEPSKKQVVPSSQRLADYKCVICLDSPENLSCTPCGHIFCNFCILSALGTTAATQKCPVCRRKVHPNKVICLEMMLGSQKKKS | binding [5]: binds
binds | binds | C-terminal domain of Ufd1 (aa 248-342) fused to the Gal4 DNA activation domain (GAD) (domain or fragment, UniProt O42915 248-342) LMKGTGTKLNGKEVAEVPKINLLDVEKQECPAPLILPLGTYFFGYPYKAPSIEEDSKKDPNLFKFEGAGTSLRASRKTNGTMGKGSSDDPIDIDA | 
no binding | no binding | Ufd1CtDAADADA (domain or fragment, UniProt O42915 248-342) LMKGTGTKLNGKEVAEVPKINLLDVEKQECPAPLILPLGTYFFGYPYKAPSIEEDSKKDPNLFKFEGAGTSLRASRKTNGTMGKGSSDDAADADA | 
